The results in this text go back to the supplement of paper PMC10886265.

Holding throughout (test): Broth microdilution (CLSI), cation-adjusted Mueller-Hinton broth, two-fold steps from 0.25 to 128 µg/mL, 18 h at 37 °C.
Compound in one experiment: C[C@@H](O)[C@H]1C(=O)N2C(C(=O)O)=C(SCCNC=N)C[C@H]12 [Imipenem]
Compound in the next experiment: C[C@@H](O)[C@H]1C(=O)N2C(C(=O)O)=C(S[C@@H]3CN[C@H](C(=O)Nc4cccc(C(=O)O)c4)C3)[C@H](C)[C@H]12 [Ertapenem]
Compound in a further experiment: C[C@@H](O)[C@H]1C(=O)N2C(C(=O)O)=C(S[C@@H]3CN[C@H](C(=O)N(C)C)C3)[C@H](C)[C@H]12 [Meropenem]

MIC by broth microdilution (CLSI, 0.25-128 µg/mL, 18 h, 37 °C) of Gram-negative wastewater isolates picked on carbapenem-selective plates; higher = less susceptible. No active / inactive call. Isolates were selected for resistance.

Take “Escherichia coli isolate primary sludge #172 (carbapenemase genes (PCR): KPC)”: the MIC in the experiment with Imipenem came to 64 µg/mL; with Ertapenem it was 8 µg/mL; in the experiment with Meropenem, 32 µg/mL.
For “Escherichia coli isolate secondary sludge #40 (carbapenemase genes (PCR): KPC)”, in that order: 64 µg/mL, 32 µg/mL and 64 µg/mL.
In the same order, the values of “Escherichia coli isolate secondary sludge #174 (carbapenemase genes (PCR): KPC)” are 16 µg/mL, 8 µg/mL and 64 µg/mL.
On to “Escherichia coli isolate sewage #225 (carbapenemase genes (PCR): KPC)”, for which the MIC in the experiment with Imipenem was 16 µg/mL; with Ertapenem, 8 µg/mL; with Meropenem, 64 µg/mL.
Take “Klebsiella oxytoca isolate primary sludge #133 (carbapenemase genes (PCR): KPC)”: the MIC amounted to 64 µg/mL with Imipenem, 16 µg/mL with Ertapenem and 64 µg/mL in the experiment with Meropenem.
Take “Klebsiella oxytoca isolate primary sludge #138 (carbapenemase genes (PCR): KPC)”: the values for the MIC in the experiment with Imipenem, with Ertapenem and with Meropenem were 32 µg/mL, 16 µg/mL and 64 µg/mL, respectively.
In the same order, the values of “Klebsiella oxytoca isolate primary sludge #152 (carbapenemase genes (PCR): KPC)” are 8 µg/mL, 4 µg/mL and 16 µg/mL.
For “Klebsiella oxytoca isolate primary sludge #159 (carbapenemase genes (PCR): KPC)”, in that order: 16 µg/mL, 32 µg/mL and 64 µg/mL.
“Klebsiella oxytoca isolate primary sludge #161 (carbapenemase genes (PCR): KPC)”: the MIC with Imipenem was 64 µg/mL; in the experiment with Ertapenem it was 32 µg/mL; in the experiment with Meropenem, 64 µg/mL.
Regarding “Klebsiella oxytoca isolate primary sludge #170 (carbapenemase genes (PCR): KPC)”, the MIC came out at 64 µg/mL with Imipenem, 8 µg/mL in the experiment with Ertapenem and 64 µg/mL in the experiment with Meropenem.
With “Klebsiella oxytoca isolate primary sludge #191 (carbapenemase genes (PCR): KPC)”, the MIC was found to be 16 µg/mL with Imipenem, 32 µg/mL with Ertapenem and 64 µg/mL with Meropenem.
In the same order, the values of “Klebsiella oxytoca isolate primary sludge #205 (carbapenemase genes (PCR): KPC)” are 16 µg/mL, 4 µg/mL and 16 µg/mL.
In the same order, the values of “Klebsiella oxytoca isolate primary sludge #206 (carbapenemase genes (PCR): KPC)” are 16 µg/mL, 8 µg/mL and 16 µg/mL.
For “Klebsiella oxytoca isolate primary sludge #207 (carbapenemase genes (PCR): KPC)”, the MIC is 16 µg/mL in the experiment with Imipenem, 8 µg/mL in the experiment with Ertapenem and 32 µg/mL in the experiment with Meropenem.
In the same order, the values of “Klebsiella oxytoca isolate primary sludge #209 (carbapenemase genes (PCR): GES)” are 16 µg/mL, 4 µg/mL and 16 µg/mL.
In the same order, the values of “Klebsiella oxytoca isolate primary sludge #210 (carbapenemase genes (PCR): GES)” are 32 µg/mL, 8 µg/mL and 32 µg/mL.
Regarding “Klebsiella oxytoca isolate primary sludge #211 (carbapenemase genes (PCR): KPC)”, the MIC with Imipenem was 32 µg/mL; with Ertapenem, 32 µg/mL; with Meropenem, 64 µg/mL.
Regarding “Klebsiella oxytoca isolate primary sludge #212 (carbapenemase genes (PCR): KPC)”, the MIC in the experiment with Imipenem is 32 µg/mL; in the experiment with Ertapenem it was 32 µg/mL; with Meropenem, 64 µg/mL.
Regarding “Klebsiella oxytoca isolate primary sludge #216 (carbapenemase genes (PCR): KPC)”, the MIC was 64 µg/mL with Imipenem, 32 µg/mL in the experiment with Ertapenem and 64 µg/mL with Meropenem.
With “Klebsiella oxytoca isolate primary sludge #222 (carbapenemase genes (PCR): KPC)”, the minimal inhibitory concentration (MIC) stood at 32 µg/mL with Imipenem, 16 µg/mL in the experiment with Ertapenem and 32 µg/mL in the experiment with Meropenem.
Take “Klebsiella oxytoca isolate primary sludge #223 (carbapenemase genes (PCR): KPC)”: the MIC in the experiment with Imipenem came to 64 µg/mL; with Ertapenem, 32 µg/mL; with Meropenem it was 128 µg/mL.
“Klebsiella oxytoca isolate primary sludge #225 (carbapenemase genes (PCR): KPC)”: the MIC with Imipenem was determined as 16 µg/mL; in the experiment with Ertapenem it was 32 µg/mL; with Meropenem it was 64 µg/mL.
For “Klebsiella oxytoca isolate primary sludge #227 (carbapenemase genes (PCR): KPC)”, in that order: 64 µg/mL, 32 µg/mL and 64 µg/mL.
In the same order, the values of “Klebsiella oxytoca isolate primary sludge #229 (carbapenemase genes (PCR): KPC)” are 32 µg/mL, 32 µg/mL and 64 µg/mL.
For “Klebsiella oxytoca isolate secondary sludge #168 (carbapenemase genes (PCR): KPC)”, in that order: 32 µg/mL, 8 µg/mL and 64 µg/mL.
For “Klebsiella oxytoca isolate secondary sludge #169 (carbapenemase genes (PCR): KPC)”, the MIC is 32 µg/mL with Imipenem, 8 µg/mL with Ertapenem and 64 µg/mL with Meropenem.
For “Klebsiella oxytoca isolate secondary sludge #171 (carbapenemase genes (PCR): KPC)”, in that order: 32 µg/mL, 8 µg/mL and 64 µg/mL.
For the test system “Klebsiella oxytoca isolate secondary sludge #184 (carbapenemase genes (PCR): KPC)”, the MIC came to 16 µg/mL in the experiment with Imipenem, 8 µg/mL in the experiment with Ertapenem and 32 µg/mL with Meropenem.
For “Klebsiella oxytoca isolate secondary sludge #186 (carbapenemase genes (PCR): KPC)”, in that order: 16 µg/mL, 8 µg/mL and 32 µg/mL.
“Klebsiella oxytoca isolate secondary sludge #188 (carbapenemase genes (PCR): KPC)”: the MIC in the experiment with Imipenem came out at 32 µg/mL; with Ertapenem, 8 µg/mL; in the experiment with Meropenem, 64 µg/mL.
In the same order, the values of “Klebsiella oxytoca isolate secondary sludge #189 (carbapenemase genes (PCR): KPC)” are 16 µg/mL, 8 µg/mL and 64 µg/mL.
In the same order, the values of “Klebsiella oxytoca isolate secondary sludge #194 (carbapenemase genes (PCR): KPC)” are 32 µg/mL, 8 µg/mL and 64 µg/mL.
For “Klebsiella oxytoca isolate secondary sludge #195 (carbapenemase genes (PCR): KPC)”, in that order: 8 µg/mL, 8 µg/mL and 32 µg/mL.
As for “Klebsiella oxytoca isolate secondary sludge #196 (carbapenemase genes (PCR): KPC)”, the MIC in the experiment with Imipenem was determined as 8 µg/mL; with Ertapenem, 8 µg/mL; in the experiment with Meropenem, 32 µg/mL.
Turning to “Klebsiella oxytoca isolate secondary sludge #197 (carbapenemase genes (PCR): KPC)”, the results for the MIC in the experiment with Imipenem, in the experiment with Ertapenem and in the experiment with Meropenem were 16 µg/mL, 8 µg/mL and 64 µg/mL, respectively.
For “Klebsiella oxytoca isolate secondary sludge #198 (carbapenemase genes (PCR): KPC)”, in that order: 16 µg/mL, 8 µg/mL and 64 µg/mL.
In the same order, the values of “Klebsiella oxytoca isolate secondary sludge #199 (carbapenemase genes (PCR): KPC)” are 8 µg/mL, 8 µg/mL and 32 µg/mL.
In the same order, the values of “Klebsiella oxytoca isolate sewage #167 (carbapenemase genes (PCR): KPC)” are 64 µg/mL, 32 µg/mL and 64 µg/mL.
As for “Klebsiella oxytoca isolate sewage #202 (carbapenemase genes (PCR): KPC)”, the MIC with Imipenem was 16 µg/mL; with Ertapenem, 32 µg/mL; with Meropenem it was 64 µg/mL.
In the same order, the values of “Klebsiella oxytoca isolate sewage #203 (carbapenemase genes (PCR): KPC)” are 32 µg/mL, 32 µg/mL and 32 µg/mL.
For “Klebsiella oxytoca isolate sewage #211 (carbapenemase genes (PCR): KPC)”, in that order: 64 µg/mL, 32 µg/mL and 128 µg/mL.
For “Klebsiella oxytoca isolate sewage #213 (carbapenemase genes (PCR): KPC)”, in that order: 8 µg/mL, 32 µg/mL and 64 µg/mL.

One may read the MIC as the lowest concentration that inhibits growth of the organism.
